Laboratory results: the supplement of paper PMC6089552
In all, about 3,200 compounds went through this assay and about 300 (9.4%) showed activity. This is a selection; strong and weak results do not stand in their true shares.

Tested on: A673/TR/shEF
Test: cell viability (LOESS-normalised, relative to median of negative controls) (log2 ratio); higher = more viable cells (less compound effect), active = hit call of the paper (over 3 MAD below the median)
Conditions: treatment time: 72 h
Summary of the method: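 A673/TR/shEF Ewing sarcoma cells were plated at 1,500 per well in 384-well plates and cultured with or without doxycycline, added 24 h before compounds, to induce EWS-FLI1 shRNA knockdown. Library compounds at two or more concentrations, alongside DMSO controls, were applied for three days. Cell viability was measured by CellTiter-Glo luminescence on an Envision reader. Readings were LOESS-corrected per plate, divided by the median of negative controls and log2-transformed, and hits were wells lying at least three median absolute deviations from the median of all screened wells.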

[1] = 0.25 µM, library screen: screen1, EWS-FLI1 expression: high (no doxycycline)
[2] = 0.25 µM, library screen: screen1, EWS-FLI1 expression: low (doxycycline-induced shRNA knockdown)
[3] = 2.5 µM, library screen: screen1, EWS-FLI1 expression: high (no doxycycline)
[4] = 2.5 µM, library screen: screen1, EWS-FLI1 expression: low (doxycycline-induced shRNA knockdown)
[5] = 0.103 µM, library screen: screen3, EWS-FLI1 expression: high (no doxycycline)
[6] = 0.103 µM, library screen: screen3, EWS-FLI1 expression: low (doxycycline-induced shRNA knockdown)
[7] = 0.308 µM, library screen: screen3, EWS-FLI1 expression: high (no doxycycline)
[8] = 0.308 µM, library screen: screen3, EWS-FLI1 expression: low (doxycycline-induced shRNA knockdown)
[9] = 0.926 µM, library screen: screen3, EWS-FLI1 expression: high (no doxycycline)
[10] = 0.926 µM, library screen: screen3, EWS-FLI1 expression: low (doxycycline-induced shRNA knockdown)
[11] = 2.8 µM, library screen: screen3, EWS-FLI1 expression: high (no doxycycline)
[12] = 2.8 µM, library screen: screen3, EWS-FLI1 expression: low (doxycycline-induced shRNA knockdown)
[13] = 8.3 µM, library screen: screen3, EWS-FLI1 expression: high (no doxycycline)
[14] = 8.3 µM, library screen: screen3, EWS-FLI1 expression: low (doxycycline-induced shRNA knockdown)
[15] = 25 µM, library screen: screen3, EWS-FLI1 expression: high (no doxycycline)
[16] = 25 µM, library screen: screen3, EWS-FLI1 expression: low (doxycycline-induced shRNA knockdown)
[17] = 0.25 µM, library screen: screen2, EWS-FLI1 expression: high (no doxycycline)
[18] = 0.25 µM, library screen: screen2, EWS-FLI1 expression: low (doxycycline-induced shRNA knockdown)
[19] = 2.5 µM, library screen: screen2, EWS-FLI1 expression: high (no doxycycline)
[20] = 2.5 µM, library screen: screen2, EWS-FLI1 expression: low (doxycycline-induced shRNA knockdown)

Measured: cell viability (log2)

OC[C@H]1O[C@@](CO)(O[C@H]2O[C@H](CO)[C@@H](O)[C@H](O)[C@H]2O)[C@@H](O[C@H]2O[C@H](CO)[C@@H](O)[C@H](O)[C@H]2O)[C@@H]1O
inactive: [1] 0.0123 | [2] 0.0415 | [3] 0.0346 | [4] 0.126

CC(=O)Oc1cc2c(s1)CCN(C(C(=O)C1CC1)c1ccccc1F)C2 (stereo not drawn)
inactive: [5] 0.0815 | [6] 0.132 | [7] 0.116 | [8] 0.071 | [9] 0.0574 | [10] 0.0515 | [11] 0.108 | [12] 0.106 | [13] 0.0209 | [14] 0.0103 | [15] 0.0515 | [16] 0.0692

COc1c2c(nc3ccccc13)OC(C(C)(O)CO)C2 (stereo not drawn)
inactive: [17] 0.196 | [18] 0.114 | [19] 0.0978 | [20] 0.104

CC(C)C(=O)Nc1ccc([N+](=O)[O-])c(C(F)(F)F)c1
inactive: [1] 0.179 | [2] 0.0106 | [17] 0.112 | [18] 0.0436 | [3] 0.139 | [4] -0.0121 | [19] 0.0619 | [20] 0.0716

COc1c(C=O)c(O)cc2c1C(=O)c1ccccc1C2=O
inactive: 0.025 µM, library screen: screen1, EWS-FLI1 expression: high (no doxycycline) 0.0865 | 0.025 µM, library screen: screen1, EWS-FLI1 expression: low (doxycycline-induced shRNA knockdown) 0.0031 | [1] 0.118 | [2] -0.13 | [3] 0.0699 | [4] -0.209 | 25 µM, library screen: screen1, EWS-FLI1 expression: high (no doxycycline) 0.0121 | 25 µM, library screen: screen1, EWS-FLI1 expression: low (doxycycline-induced shRNA knockdown) -0.781

CC1(C)CCC2=C(O1)c1ccccc1C(=O)C2=O
inactive: [17] 0.122 | [18] 0.0711 | [19] 0.0799 | [20] 0.0776

CCOC(=O)C1=C(C)N=C2SC(C)C(=O)N2C1c1ccc(OC)cc1 (stereo not drawn)
inactive: [1] 0.148 | [2] 0.0319 | [3] 0.107 | [4] 0.0438

CC(=O)OCC[N+](C)(C)C
inactive: [1] 0.108 | [2] 0.145 | [3] 0.235 | [4] 0.234

CC(=O)O[C@@H]1CC2C(C)(C)C(=O)CC[C@]2(C)C2CC[C@]3(C)C(=CC(=O)O[C@H]3c3ccoc3)[C@@]21C (stereo partly drawn)
inactive: [1] 0.0774 | [2] 0.142 | [3] 0.182 | [4] 0.164

CC(=O)O[C@H]1C[C@@H](OC(C)=O)C(C)(C)C2C[C@@H](OC(C)=O)[C@@]3(C)C4=CC(=O)OC(=O)[C@]4(C)CCC3[C@]21C (stereo partly drawn)
inactive: [1] 0.0349 | [2] 0.118 | [3] 0.174 | [4] 0.189

N[C@@H](CSCCCO)C(=O)O
inactive: [5] 0.115 | [6] -0.0276 | [7] 0.135 | [8] 0.0612 | [9] 0.036 | [10] 0.1 | [11] 0.152 | [12] 0.0682 | [13] 0.103 | [14] 0.0755 | [15] 0.134 | [16] 0.135

O=C(O)/C=C/c1cnc[nH]1
inactive: [17] 0.168 | [18] 0.0645 | [19] -0.0529 | [20] 0.0532

C[C@H](CCC(=O)O)[C@H]1CC[C@H]2[C@@H]3CC[C@@H]4C[C@H](O)CC[C@]4(C)[C@H]3CC[C@]12C
inactive: [1] 0.0214 | [2] -0.00846 | [3] 0.155 | [4] 0.115

CC(=O)SCC(Cc1ccccc1)C(=O)NCC(=O)OCc1ccccc1 (stereo not drawn)
inactive: [5] 0.0735 | [6] 0.0424 | [7] 0.0614 | [8] 0.104 | [9] 0.103 | [10] 0.0998 | [11] 0.0849 | [12] 0.0713 | [13] 0.0257 | [14] 0.0151 | [15] 0.132 | [16] 0.14

O=C(O)CCCC[C@@H]1SC[C@@H]2NC(=O)N[C@@H]21
inactive: [1] 0.0947 | [2] 0.066 | [3] 0.152 | [4] 0.016

CCOC(=O)Nc1ccc(NCc2ccc(F)cc2)nc1N
inactive: [17] 0.199 | [18] 0.0446 | [19] 0.207 | [20] -0.0502

CC1COc2c(N3CCN(C)CC3)c(F)cc3c(=O)c(C(=O)O)cn1c23 (stereo not drawn)
inactive: [5] -0.0195 | [6] 0.125 | [1] 0.146 | [2] 0.0528 | [17] 0.159 | [18] 0.134 | [7] 0.0326 | [8] 0.0583 | [9] 0.112 | [10] 0.0335 | [3] 0.141 | [4] 0.0922 | [19] 0.14 | [20] 0.026 | [11] 0.0978 | [12] 0.142 | [13] 0.131 | [14] 0.0363 | [15] 0.0764 | [16] 0.0436

CN(C/C=C/C#CC(C)(C)C)Cc1cccc2ccccc12
inactive: [5] 0.0931 | [6] 0.0321 | [7] 0.121 | [8] 0.0707 | [9] 0.0937 | [10] 0.0724 | [11] 0.0718 | [12] 0.0676 | [13] 0.087 | [14] 0.0453 | [15] 0.0712 | [16] 0.083
